The values below come from PMC12815461.

Sequences of proteins named here, by UniProt entry; tags and fusion partners are left off.
UniProt Q12888: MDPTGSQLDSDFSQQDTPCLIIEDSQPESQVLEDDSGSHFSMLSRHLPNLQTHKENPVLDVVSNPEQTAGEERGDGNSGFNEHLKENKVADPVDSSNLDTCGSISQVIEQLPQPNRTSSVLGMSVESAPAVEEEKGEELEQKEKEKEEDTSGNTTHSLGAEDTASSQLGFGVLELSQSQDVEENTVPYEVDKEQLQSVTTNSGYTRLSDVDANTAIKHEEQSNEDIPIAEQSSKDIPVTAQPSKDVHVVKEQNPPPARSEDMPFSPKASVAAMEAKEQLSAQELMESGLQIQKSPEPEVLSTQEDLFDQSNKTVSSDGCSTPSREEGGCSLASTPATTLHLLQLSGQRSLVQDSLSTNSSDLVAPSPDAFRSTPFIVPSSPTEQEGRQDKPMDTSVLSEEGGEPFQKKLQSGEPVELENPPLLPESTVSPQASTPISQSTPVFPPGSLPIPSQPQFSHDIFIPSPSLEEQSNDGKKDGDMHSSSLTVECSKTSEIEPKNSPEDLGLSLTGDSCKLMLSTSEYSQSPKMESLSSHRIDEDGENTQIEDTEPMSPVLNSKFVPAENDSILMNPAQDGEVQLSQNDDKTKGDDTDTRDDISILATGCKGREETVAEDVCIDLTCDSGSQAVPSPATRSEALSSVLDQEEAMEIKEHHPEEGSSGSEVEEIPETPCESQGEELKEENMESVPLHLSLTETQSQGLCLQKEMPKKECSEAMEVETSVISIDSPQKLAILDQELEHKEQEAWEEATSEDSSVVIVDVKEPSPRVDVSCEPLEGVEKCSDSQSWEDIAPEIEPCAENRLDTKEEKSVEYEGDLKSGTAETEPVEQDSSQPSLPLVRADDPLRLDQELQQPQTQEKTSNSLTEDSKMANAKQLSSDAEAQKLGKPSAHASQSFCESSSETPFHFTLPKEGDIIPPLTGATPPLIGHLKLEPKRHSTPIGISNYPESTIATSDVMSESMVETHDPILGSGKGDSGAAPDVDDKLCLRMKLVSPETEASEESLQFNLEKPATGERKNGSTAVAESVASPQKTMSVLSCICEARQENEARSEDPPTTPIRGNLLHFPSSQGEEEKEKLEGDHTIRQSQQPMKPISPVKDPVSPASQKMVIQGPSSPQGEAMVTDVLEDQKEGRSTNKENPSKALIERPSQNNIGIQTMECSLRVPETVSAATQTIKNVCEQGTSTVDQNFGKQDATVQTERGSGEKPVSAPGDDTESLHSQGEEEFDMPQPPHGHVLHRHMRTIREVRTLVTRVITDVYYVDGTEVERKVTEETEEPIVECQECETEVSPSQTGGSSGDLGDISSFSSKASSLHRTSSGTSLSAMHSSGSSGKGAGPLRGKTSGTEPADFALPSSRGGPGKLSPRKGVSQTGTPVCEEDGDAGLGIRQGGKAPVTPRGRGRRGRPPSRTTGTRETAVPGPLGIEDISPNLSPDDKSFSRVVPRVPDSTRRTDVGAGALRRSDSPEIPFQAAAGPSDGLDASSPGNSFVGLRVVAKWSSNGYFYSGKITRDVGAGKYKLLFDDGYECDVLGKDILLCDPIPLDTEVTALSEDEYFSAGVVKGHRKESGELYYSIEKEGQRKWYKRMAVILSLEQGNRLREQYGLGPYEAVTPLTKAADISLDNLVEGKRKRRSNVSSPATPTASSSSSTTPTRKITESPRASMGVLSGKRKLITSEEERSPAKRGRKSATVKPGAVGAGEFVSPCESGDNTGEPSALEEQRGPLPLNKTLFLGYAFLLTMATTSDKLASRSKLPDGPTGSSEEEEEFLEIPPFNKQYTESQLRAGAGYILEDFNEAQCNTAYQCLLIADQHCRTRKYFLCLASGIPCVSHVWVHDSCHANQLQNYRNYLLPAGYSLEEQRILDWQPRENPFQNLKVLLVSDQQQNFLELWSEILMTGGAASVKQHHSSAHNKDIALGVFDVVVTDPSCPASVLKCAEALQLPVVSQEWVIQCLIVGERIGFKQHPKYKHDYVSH

The target in this test is FLAG-53BP1 WT (human) (UniProt Q12888). Description: co-IP; FLAG-53BP1 WT, ΔMFF or IEDI_AAAA transfected into HEK293T, MLN4924 for 3 hr; 53BP1 immunoprecipitated (FLAG) and immunoblotted. (In western blotting, separated proteins are transferred to a membrane and probed.)

No constants are given. Whether binding was seen depends on the method and setting. In cells and extracts the contact can be indirect. Some binding calls cover weakened binding; strength is not graded here.

B1: GMCL1, endogenous in HEK293T (as part of CRL3^GMCL1) (protein, UniProt Q96IK5 1-515)
chain: MGSLSSRVLRQPRPALAQQAQGARAGGSARRPDTGDDAAGHGFCYCAGSHKRKRSSGSFCYCHPDSETDEDEEEGDEQQRLLNTPRRKKLKSTSKYIYQTLFLNGENSDIKICALGEEWSLHKIYLCQSGYFSSMFSGSWKESSMNIIELEIPDQNIDVEALQVAFGSLYRDDVLIKPSRVVAILAAACLLQLDGLIQQCGETMKETVNVKTVCGYYTSAGTYGLDSVKKKCLEWLLNNLMTHQNVELFKELSINVMKQLIGSSNLFVMQVEMDIYTALKKWMFLQLVPSWNGSLKQLLTETDVWFSKQRKDFEGMAFLETEQGKPFVSVFRHLRLQYIISDLASARIIEQDAVVPSEWLSSVYKQQWFAMLRAEQDSEVGPQEINKEELEGNSMRCGRKLAKDGEYCWRWTGFNFGFDLLVTYTNRYIIFKRNTLNQPCSGSVSLQPRRSIAFRLRLASFDSSGKLICSRTTGYQILTLEKDQEQVVMNLDSRLLIFPLYICCNFLYISPEKKN
As to B1, the binding result is listed as “binds”.
